Test results published in the RNAGym collection of RNA variant scans (doi:10.7554/elife.90254).
Read counts are not given, so values of variants with three or more changes are uncertain.

B1: LINE1-mini (parent)
chain: GGCAGAGCUCAACACAGCGUGGCAAAGUGGCUGUGGCUAGACUGCC

Variants of: B1
Assay: self-cleavage, relative activity (ratio to wild type); higher = more cleavage; in vitro, sequencing; the parent is a self-cleaving ribozyme

Variant | self-cleavage
GGCAGAGCUGAACACAUCGUGGCAAAGUGAUUGUGGCUAGACUACC | 0.32
GGCAGAGCUGAACACAUCGUGGCAAAGUGGCUGUGGCUACACUGCC | 0.02
GGCAGAGCUGAACACAGCAUGACAAAGUGGCUGUGGCUAGACUGGC | 0.02
GGCAGAGCUGAACACAGCAUGGCAAAGUGGCUGUCGCCAGACUGCC | 0
GGCAGAGCUGAACACAGCAUGGCAAAGAGGCUGUGGCUACACUGCC | 0.01
GGCAGAGCUGAACACAGCAUGGCAAAGUGGCUGUGGCUAGACCGCC | 0.02
GGCAGAGCUGAACACAGCCUGGCAAAGUGGCUGUGGCUAGUCUUCC | 0.01
GGCAGAGCUGAACACAGCUUGGCAAAGUGGCUGUGUCUAGACUUCC | 0
GGCAGAGCUGAACACAGCGUAGAAAAGUGCCUGUGCAUAGACUGCC | 0.01
GGCAGAGCUGAACACAGCGUAGCAAAGUGGCUGAAGCUAAACUGCC | 0
GGCAGAGCUGAACACAGCGUCGCAAAGUGGCUGUGGAUAGACUGCC | 0
GGCAGAGCUGAACACAGCGUUGGAAAGUGGCUGUGGCUAGACUGCC | 0.13
GGCAGAGCUGAACACAGCGUUGCAAAGUGGCGGUGGCUUGACUGCU | 0.01
GGCAGAGCUGAACACAGCGUGACAAAGUGGCUGUGGCUAGACUGAC | 0.08
GGCAGAGCUGAACACAGCGUGACAAAGUGCCUGUGGCUAGACUGCC | 0.17
GGCAGAGCUGAACACAGCGUGUCACAGUGGCUGUGGCUAGACUGCC | 0.09
GGCAGAGCUGAACACAGCGUGGCAAAAAAGACGUGGGUAGACUGCC | 0
GGCAGAGCUGAACACAGCGUGGCAAACUGGCUGUGGCUAGACUGCA | 0.01
GGCAGAGCUGAACACAGCGUGGCAAACUGUCUGUGGCUAGACUGCC | 0.35

Variant | self-cleavage
GGCAGAGCUGAACACAGCGUGGCAAACUGGCUCUGGCUAGACAGCC | 0
GGCAGAGCUGAACACAGCGUGGCAAAUUGACUGUGGCUAGACUGCC | 0.27
GGCAGAGCUGAACACAGCGUGGCAAAUUGCCUGUGGCUAGACUGCC | 0.31
GGCAGAGCUGAACACAGCGUGGCAAAGUAGCUGUGGCUUGCCUGCC | 0
GGCAGAGCUGAACACAGCGUGGCAAAGUAGCUGUGGUUAGACUGCC | 0
GGCAGAGCUGAACACAGCGUGGCAAAGUCGCUGGUGCUAGACUGCC | 0.02
GGCAGAGCUGAACACAGCGUGGCAAAGUUGCUGUGACUAGACUGCC | 0.02
GGCAGAGCUGAACACAGCGUGGCAAAGUGCCUGUGGCUAGCUUGCC | 0
GGCAGAGCUGAACACAGCGUGGCAAAGUGUCUGUGGCUCGACUGCC | 0.01
GGCAGAGCUGAACACAGCGUGGCAAAGUGUCUGUGGGUAGACUGCC | 0.01
GGCAGAGCUGAACACAGCGUGGCAAAGUGUCUGUGGCUAGACUGUC | 0.05
GGCAGAGCUGAACACAGCGUGGCAAAGUGGCUAUGGCUUGACUGCC | 0
GGCAGAGCUGAACACAGCGUGGCAAAGUGGCUCUGGCUAAACUGUC | 0.01
GGCAGAGCUGAACACAGCGUGGCAAAGUGGCUUUGGCUAGACUGCG | 0
GGCAGAGCUGAACACAGCGUGGCAAAGUGGCUGUGAAUAGACUGCC | 0
GGCAGAGCUGAACACAGCGUGGCAAAGUGGCUGUGUCUAGCCUGCC | 0.05
GGCAGAGCUGAACACAGCGUGGCAAAGUGGCUGUGGCUAAGCUGCC | 0
GGCAGAGCUGAACACAGCGUGGCAAAGUGGCUGUGGCUACACGGCC | 0.02
GGCAGAGCUGAACACAGCGAGGCACAGUGGCUGUGGCUAGACUGCC | 0.04

Variant | self-cleavage
GGCAGAGCUGAACACAGCGAGGCACAGUGACUGUGGCUAGACUGCC | 0.04
GGCAGAGCUGAACACAGCGAGGCAAAGAGGCUGUGGCUAGACUACC | 0.02
GGCAGAGCUGAACACAGCGCGGCAAAGUGGCUAUGGCUAGACUGCC | 0.01
GGCAGAGCUGAACACAGCGCGGCAAAGUGGCUGUGGCUACACUUCC | 0.01
GGCAGAGCUGAACACAGCGUGGCAAAGAGGCUGUGGAUAGACAGCC | 0
GGCAGAGCUGAACACAGCGUGGCAAAGUGGCGGUGGCUCGACCGCC | 0
GGCAGAGCUGAACACAGCGUGGCAAAGUGGCGGUGGCUAGCAUGCC | 0
GGCAGAGCUGAACACAGCGUGGCAAAGUGGCUGCGGCUGGACUGCC | 0.03
GGCAGAGCUGAACACAGCGUGGCAAAGUGGCUGGGGCUCGACUGCC | 0.02
GGCAGAGCUUCACCCAGCGUGGCAAGGUGGCUGUGGCUAGACUGCC | 0.04
GGCAGAGCUUCACACAACGUCGCAAAGUGGCUGUGGCUAGAUUGCU | 0.02
GGCAGAGCUUGUCACAGCGUGACAAAGUGGCUGUGGCUAGACUGCC | 0.01
GGCAGAGCUUGACACAGCGUGGCAAAGUGGCUGUGGCUGGACUGCC | 0
GGCAGAGCUUGACAGAGCGUGGCAAAGUGGCUGUGACUAGAUUGCC | 0.03
GGCAGAGCUUGACACAACGUGGCUAAGUGGCUGUGGCUAGACGACC | 0
GGCAGAGCUUGACACAGCGUGGCAAAGUUGCUGUGGCUAGACUGCC | 0.01
GGCAGAGCUUGACACAGCGUGGCAAAGUGGCUGUGGCUAGACUCCC | 0.03
GGCAGAGCUUGACACAGCGUGGCAAAGUGGCUGUGGCUAGACCGCC | 0.01
